# Several values for one entry are separate records, joined by “and”; a condition that tells them apart may be missing. Equal entries are not always repeated. This list was built around the results that the source calls inconclusive (neither active nor inactive); the mix of calls is not that of the screen. For part of these data: Potencies beside an inconclusive call are fits to weak or partial responses and may not hold up. Activity calls are given as the source filed them. The call rests on the fitted dose curve; in most records, active means well fitted curve in the direction sought with a large enough effect; inconclusive means small, poorly fitted or top-dose-only effect, or another doubt; inactive means no such curve, though single readings can be large; an effect the other way counts as inactive or inconclusive.
# Columns and labels:
# [1] = Viability qHTS for spleen associated tyrosine kinase inhibitor (SYKi) naive MV4-11 cells (AID 1963823); details: MV4-11 AML viability, CellTiter-Glo luminescence, 72 h; series mostly up to 45 µM; further: nearly all actives have a fitted effect of over 40% in size
# Outline: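 Cells: MV4-11, SYK inhibitor naive, 500 per well. Treatment: library compounds, 72 hr, 37 C, 5% CO2. Read-out: CellTiter-Glo luminescence after 10 min RT.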
# [2] = Viability qHTS for spleen associated tyrosine kinase inhibitor (SYKi) drug resistant MV4-11 cells (AID 1963824); further: nearly all actives have a fitted effect of over 35% in size
# Outline: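 SYK inhibitor-resistant MV4-11 AML cells, 500 per well, added to predispensed compounds and incubated 72 hr at 37 C, 5% CO2. Viability measured by CellTiter-Glo luminescence after 10 min at room temperature.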
# [3] = Quantitative highthroughput screen to assess conditional lethalithy of NOMO1 cells grown in RPMI1640 with untreated serum (RPMI+s) (AID 1963876); details: NOMO1 AML cells in RPMI+serum, CellTiter-Glo viability, 48 h; viability: at 45.8 µM (top of the series); further: nearly all actives have a fitted effect of over 35% in size
# Outline: (§1)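 Each medium arm—HPLM with 10% dialyzed FBS, or RPMI1640 with 5 mM glucose and 10% untreated or dialyzed FBS—was screened against an 11-point, 3-fold compound titration for 48 h at 37 °C, with CellTiter-Glo luminescence as endpoint.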
# [4] = Quantitative highthroughput screen to assess conditional lethalithy of NOMO1 cells grown in RPMI1640 with dialyzed fetal bovine serum (RPMI+ds) (AID 1963877); further: nearly all actives have a fitted effect of over 30% in size
# Outline: as §1
# [5] = Quantitative highthroughput screen to assess conditional lethalithy of NOMO1 cells grown in Human Plasma-Like Medium with dialyzed fetal bovine serum (HPLM+ds) (AID 1963878); details: NOMO1 AML cells in HPLM+ds, CellTiter-Glo viability, 48 h; viability: at 45.8 µM (top of the series); further: nearly all actives have a fitted effect of over 35% in size
# Outline: as §1
# [6] = Quantitative highthroughput screen to assess conditional lethalithy of P12 Ichikawa cells grown in Human Plasma-Like Medium with dialyzed fetal bovine serum (HPLM+ds) (AID 1963879); details: Potency: viability; further: nearly all actives have a fitted effect of over 35% in size
# Outline: as §1
# [7] = Quantitative highthroughput screen to assess conditional lethalithy of P12 Ichikawa cells grown in RPMI1640 with dialyzed fetal bovine serum (RPMI+ds) (AID 1963880); details: Potency: P12-Ichikawa viability; further: nearly all actives have a fitted effect of over 35% in size
# Outline: as §1
# [8] = Quantitative highthroughput screen to assess conditional lethalithy of P12 Ichikawa cells grown in RPMI1640 with untreated serum (RPMI+s) (AID 1963881); details: Potency: viability; further: nearly all actives have a fitted effect of over 35% in size
# Outline: as §1
# [9] = Quantitative highthroughput screen to assess conditional lethalithy of SEM cells grown in Human Plasma-Like Medium with dialyzed fetal bovine serum (HPLM+ds) (AID 1963882); further: nearly all actives have a fitted effect of over 35% in size
# Outline: as §1
# [10] = Quantitative highthroughput screen to assess conditional lethalithy of SEM cells grown in RPMI1640 with unreated serum (RPMI+s) (AID 1963883); details: SEM B-ALL cells, CellTiter-Glo viability, 48 h; viability: at 45.8 µM (top of the series); further: nearly all actives have a fitted effect of over 35% in size
# Outline: as §1
# [11] = Quantitative highthroughput screen to assess conditional lethalithy of SEM cells grown in RPMI1640 with dialyzed fetal bovine serum (RPMI+ds) (AID 1963884); details: SEM B-ALL cells, RPMI+dialyzed FBS, CellTiter-Glo viability, 48 h; viability: at 45.8 µM (top of the series); further: nearly all actives have a fitted effect of over 35% in size
# Outline: as §1
# [12] = Cellular viability qHTS for adrenocortical cancer (ACC) cell line SW-13 (AID 1963989); details: SW-13 ACC cells viability, CellTiter-Glo, 48 h; activity (max response): stronger effect = lower value; further: nearly all actives have a fitted effect of over 65% in size
# Outline: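 SW-13 cells in ITS-supplemented serum-free DMEM were plated overnight, then exposed for 48 h at 37C to compound titrations (up to 46 uM final). Viability was read by CellTiter-Glo luminescence; four-parameter logistic fits gave IC50 and efficacy.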
# [13] = Cellular viability qHTS for adrenocortical cancer (ACC) cell line NCI-H295R (AID 1963990); details: CellTiter-Glo ATP luminescence, 48 h; series mostly up to 46.1 µM; further: nearly all actives have a fitted effect of over 60% in size
# Outline: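 Luminescent ATP read-out (CellTiter-Glo, 20 min RT) after 48 h drug exposure of NCI-H295R cells; a titration up to 46 uM final. Data normalized to doxorubicin (100% inhibition) and DMSO (0%); 4-parameter fit gives IC50, max response.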
# Potency means the concentration at half of the fitted maximal effect; tags describe the fitted curve by direction and shape.
structure (smiles),measurement,setting,value
COc1ccc(C2C(C(=O)O)C(C(=O)O)C2c2ccc(OC)cc2O[C@@H]2O[C@H](CO)[C@@H](O)[C@H](O)[C@H]2O)c(O[C@@H]2O[C@H](CO)[C@@H](O)[C@H](O)[C@H]2O)c1 (some centres undefined),Potency,[1],"inconclusive: 7.69 µM [cytotoxic, single point]"
same,Potency,[2],"inconclusive: 6.85 µM [cytotoxic, single point]"
NC(=O)c1cccc2cn(-c3ccc(C4CCCNC4)cc3)nc12 (centres undefined),Potency,[1],"inconclusive: 7.31 µM [cytotoxic, partial curve]"
same,Potency,[2],"inconclusive: 11.6 µM [cytotoxic, partial curve, poor fit]"
CC(C)(C)NC[C@H](O)COc1nsnc1N1CCOCC1,Potency,[1],"inconclusive: 4.73 µM [cytotoxic, partial curve, poor fit]"
same,Potency,[2],inactive
C/C=C(\C)C(=O)O[C@H]1[C@@H](O[C@]2(COC(=O)CC(C)C)O[C@H](COC(=O)C(C)C)[C@@H](OC(C)=O)[C@@H]2O)O[C@H](COC(C)=O)[C@@H](O)[C@@H]1O,Potency,[1],"inconclusive: 9.68 µM [cytotoxic, single point]"
same,Potency,[2],"inconclusive: 9.68 µM [cytotoxic, partial curve, poor fit]"
COc1cc(Br)c(S(=O)(=O)Nc2ccc(C(F)(F)F)c(O[C@@H]3CCN(C)C3)c2)cc1OC,Potency,[1],"inconclusive: 16.4 µM [cytotoxic, single point]"
same,Potency,[2],"inconclusive: 14.6 µM [cytotoxic, partial curve]"
CC(C)=C/C=C\[C@H](C)[C@H]1CC[C@]2(C)C[C@@H]3C(C)=CC(=O)C3/C(CO)=C\C[C@@H]12 (some centres undefined),Potency,[1],"inconclusive: 16.1 µM [cytotoxic, single point]"
same,Potency,[2],active: 14.3 µM
Clc1ncoc1-c1c[nH]c2ccccc12,Potency,[1],"inconclusive: 1.84 µM [cytotoxic, partial curve, poor fit]"
same,Potency,[2],"inconclusive: 2.91 µM [cytotoxic, single point]"
CC(C)c1cc2c(cc1S(=O)(=O)O)[C@@]1(C)CCC[C@@](C)(C(=O)O)[C@@H]1CC2,Potency,[1],inactive
same,Potency,[2],"inconclusive: 0.003 µM [rising, full curve]"
COc1ccc([C@@H]2Sc3ccccc3NC(=O)[C@@H]2O)cc1,Potency,[1],"inconclusive: 33.5 µM [cytotoxic, single point]"
same,Potency,[2],"inconclusive: 29.9 µM [cytotoxic, single point]"
CC(=O)O[C@@H](CO[C@@H]1O[C@H](CO)[C@H](O)[C@H](O)[C@H]1O)[C@]1(C)C=C2CC[C@@H]3C(C)(C)[C@@H](O)CC[C@@]3(C)[C@@H]2CC1,Potency,[1],"inconclusive: 14.2 µM [cytotoxic, single point]"
same,Potency,[2],"inconclusive: 14.2 µM [cytotoxic, single point]"
COc1ccc(-c2c(C)nn3c(NCCN4CCOCC4)cc(C)nc23)cc1OC,Potency,[1],active: 8.33 µM
same,Potency,[2],active: 9.2 µM
N#Cc1ccc(COC[C@H]2O[C@@H](n3c(NCc4ccc(Cl)c(Cl)c4)nc4c(N)ncnc43)[C@H](O)[C@@H]2O)cc1,Potency,[1],"inconclusive: 2 µM [cytotoxic, full curve]"
same,Potency,[2],active: 2.52 µM and active: 3.32 µM
CN1C[C@@H]2C[C@H]1CN2c1cc2c(cc1F)c(=O)c(C(=O)O)cn2C1CC1,Potency,[1],inactive
same,Potency,[2],"inconclusive: 16.4 µM [cytotoxic, single point]"
CSCC[C@H](NC(=O)[C@H](Cc1c[nH]c2ccccc12)NC(=O)CCNC(=O)OC(C)(C)C)C(=O)N[C@@H](CC(=O)O)C(=O)N[C@@H](Cc1ccccc1)C(N)=O,Potency,[1],inactive
same,Potency,[2],"inconclusive: 0.841 µM [cytotoxic, partial curve, poor fit]"
Cc1ccc([N+](=O)[O-])cc1S(=O)(=O)N(C)/N=C\c1cnc2ccc(Br)cn12,Potency,[1],"inconclusive: 0.013 µM [cytotoxic, full curve]"
same,Potency,[2],"inconclusive: 0.0231 µM [cytotoxic, full curve]"
O=S(=O)(NCc1ccccn1)c1ccc(Br)c2ccccc12,Potency,[1],"inconclusive: 20.6 µM [cytotoxic, partial curve]"
same,Potency,[2],"inconclusive: 9.2 µM [cytotoxic, partial curve]"
Oc1cn2c(n1)Nc1ccc(Cl)c(Cl)c1C2,Potency,[1],inconclusive: 0.0005 µM
same,Potency,[2],"inconclusive: 7.31 µM [cytotoxic, partial curve, poor fit]"
COc1ccc(CCC(=O)c2c(O)cc(O[C@@H]3O[C@H](CO)[C@@H](O)[C@H](O)[C@H]3O[C@@H]3O[C@@H](C)[C@H](O)[C@@H](O)[C@H]3O)cc2O)cc1O,Potency,[1],inactive
same,Potency,[2],inactive
COc1cc2c(c(OC)c1CC=C(C)C)C[C@H](c1ccc(O)cc1O)CO2,Potency,[1],"inconclusive: 10.1 µM [cytotoxic, partial curve, poor fit]"
same,Potency,[2],"inconclusive: 14.3 µM [cytotoxic, partial curve, poor fit]"
CC(O)CCCCn1c(=O)c2c(ncn2C)n(C)c1=O (centres undefined),Potency,[1],inactive
same,Potency,[2],inactive
COc1cc(CC2COC(c3ccc(OC4OC(CO)C(O)C(O)C4O)c(OC)c3)C2CO)ccc1O (centres undefined),Potency,[1],"inconclusive: 3.55 µM [cytotoxic, partial curve, poor fit]"
same,Potency,[2],"inconclusive: 0.356 µM [cytotoxic, partial curve, poor fit]"
CN(C(=O)c1cn2c(-c3ccc(C(F)(F)F)cc3)cnc2cn1)c1ccc(C#N)cc1,Potency,[1],"inconclusive: 5.8 µM [cytotoxic, partial curve]"
same,Potency,[2],"inconclusive: 9.2 µM [cytotoxic, partial curve]"
CC(=O)Oc1c(C)c(C)c2c(c1C)CC[C@@](C)(CCC[C@H](C)CCC[C@H](C)CCCC(C)C)O2,Potency,[1],inactive
same,Potency,[2],inactive
Cc1c(NC(=O)N2CCOCC2)ccc2c1c1ccccc1n2C(C)C,Potency,[1],"inconclusive: 20.6 µM [cytotoxic, single point]"
same,Potency,[2],"inconclusive: 29.1 µM [cytotoxic, single point]"
NC(=O)c1ccc(F)c2c1C[C@@H](N(C1CCC1)C1CCC1)CO2,Potency,[1],inactive
same,Potency,[2],"inconclusive: 7.31 µM [cytotoxic, partial curve, poor fit]"
CCC/C=C\C=C/CCc1cc(O)c([C@@H]2O[C@H](CO)[C@@H](O)[C@H](O)[C@H]2O)c(O)c1C(=O)OC,Potency,[1],"inconclusive: 6.32 µM [cytotoxic, partial curve, poor fit]"
same,Potency,[2],"inconclusive: 8.93 µM [cytotoxic, single point]"
CC(=O)OC[C@H]1O[C@@](COC(C)=O)(O[C@H]2O[C@H](COC(C)=O)[C@@H](OC(C)=O)[C@H](OC(C)=O)[C@H]2OC(C)=O)[C@@H](OC(C)=O)[C@@H]1OC(C)=O,Potency,[1],inactive
same,Potency,[2],inactive
C[C@]1(C2CCCC2)Cc2cc(OCC(=O)O)c(Cl)c(Cl)c2C1=O,Potency,[1],"inconclusive: 29.1 µM [cytotoxic, single point]"
same,Potency,[2],"inconclusive: 18.4 µM [cytotoxic, partial curve]"
NC(=O)CCCCC1CCSS1 (centres undefined),Potency,[1],"inconclusive: 0.006 µM [rising, full curve, poor fit]"
same,Potency,[2],inactive
CN=C(NC#N)NCCSCc1nc[nH]c1C,Potency,[1],inactive
same,Potency,[2],inactive
O=Cc1ccccc1C=O,Potency,[1],inactive
same,Potency,[2],inactive
CC1=CCC2C(C)(C)CCC[C@]2(C)[C@@]12CC[C@](C)(CC(=O)O)O2 (some centres undefined),Potency,[1],"inconclusive: 5.7 µM [cytotoxic, partial curve, poor fit]"
same,Potency,[2],"inconclusive: 16.1 µM [cytotoxic, single point]"
Cn1c(Nc2ccc(C(F)(F)F)cc2)nc2cc(Oc3ccnc(-c4ncc(C(F)(F)F)[nH]4)c3)ccc21,Potency,[1],"active: 2.91 µM and inconclusive: 13.2 µM [cytotoxic, partial curve, poor fit]"
same,Potency,[2],"inconclusive: 5.25 µM [cytotoxic, full curve, poor fit]"
same,Potency,[3],"inconclusive: 26.4 µM [cytotoxic, single point]"
same,Potency,[4],active: 23.5 µM
same,Potency,[5],"inconclusive: 18.7 µM [cytotoxic, partial curve]"
same,Potency,[6],"inconclusive: 18.7 µM [cytotoxic, partial curve]"
same,Potency,[7],active: 18.7 µM
same,Potency,[8],active: 14.8 µM
same,Potency,[9],active: 9.35 µM
same,Potency,[10],active: 4.69 µM
same,Potency,[11],"inconclusive: 4.18 µM [cytotoxic, full curve]"
CC(=O)c1c(C)c2cnc(Nc3ccc(N4CCNCC4)cn3)nc2n(C2CCCC2)c1=O,Potency,[1],"inconclusive: 58 nM [cytotoxic, full curve] and inconclusive: 1.32 µM [cytotoxic, full curve]"
same,Potency,[2],active: 184 nM and active: 5.25 µM
same,Potency,[3],"inconclusive: 11.8 µM [cytotoxic, partial curve, poor fit]"
same,Potency,[4],"inconclusive: 1.32 µM [cytotoxic, full curve]"
same,Potency,[5],"inconclusive: 16.6 µM [cytotoxic, partial curve]"
same,Potency,[6],"inconclusive: 18.7 µM [cytotoxic, partial curve]"
same,Potency,[7],"inconclusive: 5.9 µM [cytotoxic, partial curve]"
same,Potency,[8],"inconclusive: 0.935 µM [cytotoxic, full curve]"
same,Potency,[9],"inconclusive: 1.48 µM [cytotoxic, partial curve]"
same,Potency,[10],active: 4.69 µM
same,Potency,[12],"inconclusive: 35.5 µM [cytotoxic, single point]"
Nc1nc(N)c2nc(-c3cccc(O)c3)c(-c3cccc(O)c3)nc2n1,Potency,[1],"active: 13 µM and inconclusive: 23.5 µM [cytotoxic, partial curve]"
same,Potency,[2],"inconclusive: 14.8 µM [cytotoxic, partial curve]"
same,Potency,[3],"inconclusive: 26.4 µM [cytotoxic, single point]"
same,Potency,[4],"inconclusive: 20.9 µM [cytotoxic, partial curve]"
same,Potency,[5],active: 10.5 µM
same,Potency,[6],"inconclusive: 7.43 µM [cytotoxic, partial curve]"
same,Potency,[7],"inconclusive: 23.5 µM [cytotoxic, single point]"
same,Potency,[8],"inconclusive: 23.5 µM [cytotoxic, partial curve]"
same,Potency,[9],active: 10.5 µM
same,Potency,[10],active: 18.7 µM
same,Potency,[11],"inconclusive: 20.9 µM [cytotoxic, partial curve]"
same,Potency,[12],"inconclusive: 28.2 µM [cytotoxic, single point]"
same,Potency,[13],"inconclusive: 20 µM [cytotoxic, partial curve]"
